# Measurements from PMC11995724, “Antibiotic target discovery by integrated phenotypic and activity-based profiling of electrophilic fragments” (Cell chemical biology, 2025).
# The campaign covered roughly 3,200 compounds. About 110 (3.4%) showed an effect of 50% or more. Some of the results follow.
# System: T1, V. cholerae SAD30
# T1 construct: SAD30
# Parameters: species or system S. aureus MSSA476 (TSB) or V. cholerae SAD30 (LB); 384-well bacterial growth screen at 25 uM, OD600 relative to DMSO control
# Conditions: relative growth, OD600, LB; 25 µM; inhibitor
row,SMILES,% of control remaining [%]
1,"N#CC(=Cc1ccc(-c2ccc(Cl)cc2)o1)C(=O)Nc1ccccc1 [8-O03, 3-[5-(4-chlorophenyl)furan-2-yl]-2-cyano-N-phenylprop-2-enamide]",86.9477
2,"C=CC(=O)N(Cc1ccc(Cl)cc1Cl)CC1CCC(O)C1 (stereo not drawn) [1-B04, N-[(2,4-dichlorophenyl)methyl]-N-[(3-hydroxycyclopentyl)methyl]prop-2-enamide]",107.949
3,"C=CC(=O)NC(C)Cn1cncn1 (stereo not drawn) [3-C11, N-[1-(1H-1,2,4-triazol-1-yl)propan-2-yl]prop-2-enamide]",102.147
4,"C=CC(=O)Nc1onc(C2CCCCC2)c1CC(C)C [1-P12, N-[3-cyclohexyl-4-(2-methylpropyl)-1,2-oxazol-5-yl]prop-2-enamide]",81.6977
5,"CC(Cl)C(=O)NCCc1c[nH]c2ncccc12 (stereo not drawn) [7-C12, 2-chloro-N-(2-{1H-pyrrolo[2,3-b]pyridin-3-yl}ethyl)propanamide]",76.1275
6,"C=CC(=O)N1CCOCC1c1cc(F)cc(F)c1 (stereo not drawn) [2-O16, 1-[3-(3,5-difluorophenyl)morpholin-4-yl]prop-2-en-1-one]",92.203
7,"C=CC(=O)Nc1cccc(N2CCOCC2)c1 [1-K04, N-[3-(morpholin-4-yl)phenyl]prop-2-enamide]",97.0105
8,"C=CC(=O)N1CCC(C(=O)NCC(O)c2cccc(Cl)c2)CC1 (stereo not drawn) [3-M06, N-[2-(3-chlorophenyl)-2-hydroxyethyl]-1-(prop-2-enoyl)piperidine-4-carboxamide]",95.442
9,"CCOC(=O)C(C#N)=Cc1ccc(N2C(=O)C=CC2=O)cc1 [10-N11, ethyl 2-cyano-3-[4-(2,5-dioxo-2,5-dihydro-1H-pyrrol-1-yl)phenyl]prop-2-enoate]",96.6297
10,"O=C(CCl)N1CCC(Cc2nc(-c3ccc(F)cn3)no2)CC1 [5-K18, 2-chloro-1-(4-{[3-(5-fluoropyridin-2-yl)-1,2,4-oxadiazol-5-yl]methyl}piperidin-1-yl)ethan-1-one]",97.6778
11,"CC(=O)N(c1ccc(C)c(C)c1)c1nc(C=C(C#N)C(N)=O)cs1 [8-M16, 2-cyano-3-{2-[N-(3,4-dimethylphenyl)acetamido]-1,3-thiazol-4-yl}prop-2-enamide]",70.3603
12,"CC(Cl)C(=O)Nc1ccc(S(N)(=O)=O)cc1 (stereo not drawn) [6-B06, 2-chloro-N-(4-sulfamoylphenyl)propanamide]",94.4924
13,"CC(Cl)C(=O)N1CCCC(c2nc(-c3cccc(F)c3)no2)C1 (stereo not drawn) [6-N21, 2-chloro-1-{3-[3-(3-fluorophenyl)-1,2,4-oxadiazol-5-yl]piperidin-1-yl}propan-1-one]",83.8752
14,"Cc1cccc(C=C(C#N)C(=O)Nc2ccc(F)cc2)c1 [9-I19, 2-cyano-N-(4-fluorophenyl)-3-(3-methylphenyl)prop-2-enamide]",87.8994
15,"CN(CCOc1ccc(Cl)cc1)C(=O)CCl [5-D16, 2-chloro-N-[2-(4-chlorophenoxy)ethyl]-N-methylacetamide]",80.0252
16,"N#Cc1ccccc1N1C(=O)C=CC1=O [10-B13, 2-(2,5-dioxo-2,5-dihydro-1H-pyrrol-1-yl)benzonitrile]",22.7547
17,"Cc1ccccc1-n1c(C)cc(C(=O)CCl)c1C [10-H20, 2-chloro-1-[2,5-dimethyl-1-(2-methylphenyl)-1H-pyrrol-3-yl]ethan-1-one]",100.526
18,"Cc1ccccc1NC(=O)C(C#N)=Cc1cc(C)n(CC(C)C)c1C [8-D19, 2-cyano-3-[2,5-dimethyl-1-(2-methylpropyl)-1H-pyrrol-3-yl]-N-(2-methylphenyl)prop-2-enamide]",70.9041
19,"CCCCNC(=O)C(C#N)=Cc1ccsc1 [9-B13, N-butyl-2-cyano-3-(thiophen-3-yl)prop-2-enamide]",75.9347
20,"C#CCOc1ccccc1C=C(C#N)C(=O)Nc1ccccc1F [9-C10, 2-cyano-N-(2-fluorophenyl)-3-[2-(prop-2-yn-1-yloxy)phenyl]prop-2-enamide]",83.1407
21,"C=CC(=O)N1CCC(C(=O)NCC(C)c2ncc(C)s2)CC1 (stereo not drawn) [3-P10, N-[2-(5-methyl-1,3-thiazol-2-yl)propyl]-1-(prop-2-enoyl)piperidine-4-carboxamide]",110.439
22,"CC(C)NC(=O)C(C#N)=Cc1ccc(-c2ccc([N+](=O)[O-])cc2)s1 [9-B16, 2-cyano-3-[5-(4-nitrophenyl)thiophen-2-yl]-N-(propan-2-yl)prop-2-enamide]",77.7022
23,"CCCCNC(=O)C(C#N)=Cc1ccc(Cl)cc1 [9-H13, N-butyl-3-(4-chlorophenyl)-2-cyanoprop-2-enamide]",78.9259

row,SMILES,% of control remaining [%]
1,"N#CC(=Cc1ccc(N2CCCCC2)cc1)C(=O)NC1CC1 [8-O04, 2-cyano-N-cyclopropyl-3-[4-(piperidin-1-yl)phenyl]prop-2-enamide]",71.8559
2,"O=C(CCl)Cc1c(Cl)cccc1Cl [10-K15, 1-chloro-3-(2,6-dichlorophenyl)propan-2-one]",45.6653
3,"COc1ccc(C=C(C#N)C(=O)Nc2ccccc2C)cc1 [8-P07, 2-cyano-3-(4-methoxyphenyl)-N-(2-methylphenyl)prop-2-enamide]",78.3821
4,"CC(Cl)C(=O)NCC(=O)Nc1ccc2c[nH]nc2c1 (stereo not drawn) [7-N11, 2-chloro-N-{[(2H-indazol-6-yl)carbamoyl]methyl}propanamide]",79.9604
5,"COc1cccc(NC(=O)C(C#N)=Cc2ccc(O)cc2)c1 [8-O17, 2-cyano-3-(4-hydroxyphenyl)-N-(3-methoxyphenyl)prop-2-enamide]",71.584
6,"Cc1nc(CNC(=O)N2CCSSCC2)cs1 [10-O18, N-[(2-methyl-1,3-thiazol-4-yl)methyl]-1,2,5-dithiazepane-5-carboxamide]",98.1882
7,"Cc1ccc(Sc2ccc(NC(=O)CCl)cc2)c(C)c1 [4-I03, 2-chloro-N-{4-[(2,4-dimethylphenyl)sulfanyl]phenyl}acetamide]",72.1156
8,"CC1CC(NC(=O)C(C)Cl)=NO1 (stereo not drawn) [5-J21, 2-chloro-N-(5-methyl-4,5-dihydro-1,2-oxazol-3-yl)propanamide]",102.89
9,"C=CC(=O)NCCc1nnc(-c2ccccc2)o1 [3-J09, N-[2-(5-phenyl-1,3,4-oxadiazol-2-yl)ethyl]prop-2-enamide]",91.3839
10,"CCn1c2ccccc2c2cc(NC(=O)CCl)ccc21 [4-D06, 2-chloro-N-(9-ethyl-9H-carbazol-3-yl)acetamide]",102.308
11,"O=C(CCl)Cc1cccc(Cl)c1 [10-E17, 1-chloro-3-(3-chlorophenyl)propan-2-one]",7.481
12,"CC(Cl)C(=O)N(C)Cc1ccnn1C (stereo not drawn) [5-L17, 2-chloro-N-methyl-N-[(1-methyl-1H-pyrazol-5-yl)methyl]propanamide]",96.3329
13,"CC(Cl)C(=O)NCc1csc(-c2ccco2)n1 (stereo not drawn) [7-K05, 2-chloro-N-{[2-(furan-2-yl)-1,3-thiazol-4-yl]methyl}propanamide]",81.8107
14,"N#CC(=Cc1cc(F)ccc1F)C(=O)Nc1ccc(F)cc1 [8-E10, 2-cyano-3-(2,5-difluorophenyl)-N-(4-fluorophenyl)prop-2-enamide]",73.6234
15,"C=CC(=O)N1CCCCC1c1nc2ccccc2n1C (stereo not drawn) [3-F04, 1-[2-(1-methyl-1H-1,3-benzodiazol-2-yl)piperidin-1-yl]prop-2-en-1-one]",96.3242
16,"CC(Cl)C(=O)Nc1ccccc1F (stereo not drawn) [5-L10, 2-chloro-N-(2-fluorophenyl)propanamide]",100.368
17,"Cc1nn(CC(C)C)c(Cl)c1C1CCCN1C(=O)CCl (stereo not drawn) [5-L13, 2-chloro-1-{2-[5-chloro-3-methyl-1-(2-methylpropyl)-1H-pyrazol-4-yl]pyrrolidin-1-yl}ethan-1-one]",95.9966
18,"N#CCCN(C(=O)CCl)c1ccccc1F [5-P07, 2-chloro-N-(2-cyanoethyl)-N-(2-fluorophenyl)acetamide]",110.791
19,"CCn1ncc(C(=O)CCl)n1 [10-E13, 2-chloro-1-(2-ethyl-2H-1,2,3-triazol-4-yl)ethan-1-one]",0
20,"CCn1nc(C)c(CN(C)C(=O)CCl)c1C [5-A10, 2-chloro-N-[(1-ethyl-3,5-dimethyl-1H-pyrazol-4-yl)methyl]-N-methylacetamide]",104.907
21,"Cc1cc(C=C(C#N)C(=O)N2CC[C@H](O)C2)c(C)n1CC1CCCO1 (stereo partly drawn) [9-P04, 3-{2,5-dimethyl-1-[(oxolan-2-yl)methyl]-1H-pyrrol-3-yl}-2-[(3S)-3-hydroxypyrrolidine-1-carbonyl]prop-2-enenitrile]",94.0177
22,"O=C(CCl)NC1C=C(c2ccc(Cl)cc2)CCC1 (stereo not drawn) [7-P08, 2-chloro-N-[3-(4-chlorophenyl)cyclohex-2-en-1-yl]acetamide]",75.8632
